Measured values from patent US20230012428A1 (JIANGSU HENGRUI MEDICINE, published 2023).

B1: h1830-19-S79 (bispecific antibody, human IgG4 S228P, kappa)
heavy: QVQLQESGPGLVKPSQTLSLTCTVSGGSISDGSAYWSWIRQHPGKGLEYIGFISRAGSTYNTPSLKGRVTISRDTSKNQFSLKLSSVTAADTAVYYCARSGGWLAPFDYWGRGTLVTVSSASTKGPSVFPLAPCSRSTSESTAALGCLVKDYFPEPVTVSWNSGALTSGVHTFPAVLQSSGLYSLSSVVTVPSSSLGTKTYTCNVDHKPSNTKVDKRV[human IgG4 Fc with S228P (EU numbers) not given here]GGGGSGGGGSGGGGSGGGGEEELQMIQPEKLLLVTVGETATLHCTVTSLWPVGPVLWFRGVGPGRELIYRTGTGRFPRVTTVSDLTKRNNMDFSIRISSITPADVGTYYCVKFRKGSPEDVEFKSGPGTEVALGAKPS
light: DIVMTQSPDSLAVSLGERATINCKSSQSLFYHSNQKHSLAWYQQKPGQPPKLLIYGASTRESGVPDRFSGSGSGTDFTLTISSLQAEDVAVYYCQQYYGYPYTFGGGTKVEIKRTVAAPSVFIFPPSDEQLKSGTASVVCLLNNFYPREAKVQWKVDNALQSGNSQESVTEQDSKDSTYSLSSTLTLSKADYEKHKVYACEVTHQGLSSPVTKSFNRGEC
notes: h1830 IgG4 with SIRPγ variant S79, GS19 linker; also called PD-L1-CD47 bifunctional fusion protein
B2: h1830-S79 (bispecific antibody, human IgG4 S228P, kappa)
heavy: QVQLQESGPGLVKPSQTLSLTCTVSGGSISDGSAYWSWIRQHPGKGLEYIGFISRAGSTYNTPSLKGRVTISRDTSKNQFSLKLSSVTAADTAVYYCARSGGWLAPFDYWGRGTLVTVSSASTKGPSVFPLAPCSRSTSESTAALGCLVKDYFPEPVTVSWNSGALTSGVHTFPAVLQSSGLYSLSSVVTVPSSSLGTKTYTCNVDHKPSNTKVDKRV[human IgG4 Fc with S228P (EU numbers) not given here]GGGGSGGGGSGGGGGGEEELQMIQPEKLLLVTVGETATLHCTVTSLWPVGPVLWFRGVGPGRELIYRTGTGRFPRVTTVSDLTKRNNMDFSIRISSITPADVGTYYCVKFRKGSPEDVEFKSGPGTEVALGAKPS
light: B1 light
notes: h1830 IgG4 with SIRPγ variant S79, GS16 linker; also called PD-L1-CD47 bifunctional fusion protein
B3: h1830-S22 (bispecific antibody, human IgG4 S228P, kappa)
heavy: QVQLQESGPGLVKPSQTLSLTCTVSGGSISDGSAYWSWIRQHPGKGLEYIGFISRAGSTYNTPSLKGRVTISRDTSKNQFSLKLSSVTAADTAVYYCARSGGWLAPFDYWGRGTLVTVSSASTKGPSVFPLAPCSRSTSESTAALGCLVKDYFPEPVTVSWNSGALTSGVHTFPAVLQSSGLYSLSSVVTVPSSSLGTKTYTCNVDHKPSNTKVDKRV[human IgG4 Fc with S228P (EU numbers) not given here]GGGGSGGGGSGGGGGGEEELQMIQPEKLLLVTVGETATLHCTVTSLLPVGPVLWFRGVGPGRELIYISGRGHFPRVTTVSDLTKRNNMDFSIRISSITPADVGTYYCVKFRKGSPEDVEFKSGPGTEMALGAKPS
light: B1 light
notes: h1830 IgG4 with SIRPγ variant S22, GS16 linker
B4: h1830-S29 (bispecific antibody, human IgG4 S228P, kappa)
heavy: QVQLQESGPGLVKPSQTLSLTCTVSGGSISDGSAYWSWIRQHPGKGLEYIGFISRAGSTYNTPSLKGRVTISRDTSKNQFSLKLSSVTAADTAVYYCARSGGWLAPFDYWGRGTLVTVSSASTKGPSVFPLAPCSRSTSESTAALGCLVKDYFPEPVTVSWNSGALTSGVHTFPAVLQSSGLYSLSSVVTVPSSSLGTKTYTCNVDHKPSNTKVDKRV[human IgG4 Fc with S228P (EU numbers) not given here]GGGGSGGGGSGGGGGGEEELQMIQPEKLLLVTVGETATLHCTVTSLLPVGPVLWFRGVGPGRELIYLSGRGHFPRVTTVSDLTKRNNMDFSIRISSITPADVGTYYCVKFRKGSPEDVEFKSGPGTEMALGAKPS
light: B1 light
notes: h1830 IgG4 with SIRPγ variant S29, GS16 linker
B5: h1830-S34 (bispecific antibody, human IgG4 S228P, kappa)
heavy: QVQLQESGPGLVKPSQTLSLTCTVSGGSISDGSAYWSWIRQHPGKGLEYIGFISRAGSTYNTPSLKGRVTISRDTSKNQFSLKLSSVTAADTAVYYCARSGGWLAPFDYWGRGTLVTVSSASTKGPSVFPLAPCSRSTSESTAALGCLVKDYFPEPVTVSWNSGALTSGVHTFPAVLQSSGLYSLSSVVTVPSSSLGTKTYTCNVDHKPSNTKVDKRV[human IgG4 Fc with S228P (EU numbers) not given here]GGGGSGGGGSGGGGGGEEELQMIQPEKLLLVTVGETATLHCTVTSLLPVGPVLWFRGVGPGRELIYRSGRGHFPRVTTVSDLTKRNNMDFSIRISSITPADVGTYYCVKFRKGSPEDVEFKSGPGTEMALGAKPS
light: B1 light
notes: h1830 IgG4 with SIRPγ variant S34, GS16 linker

biological target: T1, Human CD47-his (CD47-ECD-His) (human, UniProt Q08722 part only, limits assumed); test: ELISA, CD47-his coated on plate
T1 construct: also called hCD47; free human CD47 protein

How did the EC50 turn out when B1 was run?
Its EC50 is 0.0905 µg/mL.

biological target: T2, Cyno CD47-his (cyno, UniProt A0A2K5X523 19-139); test: ELISA, CD47-his coated on plate
T2 construct: extracellular domain; not shown: His tag

B1 was tested. Which EC50 did it give?
The EC50 was 0.0435 µg/mL.

biological target: T3, hPD-L1-His (human, UniProt Q9NZQ7 part only); test: ELISA, PD-L1-his coated on plate
T3 construct: Bought; also called Human PD-L1-his; Human PD-L1; not shown: His tag

B1 was tested. Which EC50 did it give?
Its EC50 is 0.0952 µg/mL.

biological target: T4, Cyno PD-L1-His (cyno, UniProt G7PSE7 19-239); test: ELISA, PD-L1-his coated on plate
T4 construct: Bought; not shown: His tag

Which EC50 does the source give for B1 here?
The EC50 was 0.254 µg/mL.

biological target: T5, mPD-L1 (mouse, UniProt Q9EP73 part only); test: ELISA, PD-L1-his coated on plate
T5 construct: Bought; also called Mouse PD-L1-his; Mouse PD-L1

Which EC50 does the source give for B1 here?
The EC50 was 0.0582 µg/mL.

biological target: T6, PD-L1-Fc (prepared in-house) (human, UniProt Q9NZQ7 part only, limits assumed); test: blocking ELISA, PD-L1-Fc coated, competitor biotin-labeled B7-1
T6 construct: Prepared in-house; also called human PD-L1-Fc; not shown: Fc

Which IC50 does the source give for B1 here?
Its IC50 is 0.0988 µg/mL.

biological target: T6, PD-L1-Fc (prepared in-house); test: blocking ELISA, PD-L1-Fc coated, competitor biotin-labeled PD-1
T6 sequence (Q9NZQ7 19-238 limits assumed): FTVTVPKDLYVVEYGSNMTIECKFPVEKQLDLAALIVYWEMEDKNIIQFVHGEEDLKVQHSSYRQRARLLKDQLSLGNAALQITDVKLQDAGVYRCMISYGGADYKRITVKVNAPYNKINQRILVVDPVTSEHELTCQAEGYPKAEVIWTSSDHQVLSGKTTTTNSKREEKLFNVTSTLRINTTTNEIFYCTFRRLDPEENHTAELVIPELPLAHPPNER

With B1 as the binder, how does the IC50 read?
The IC50 was 0.0647 µg/mL.

biological target: T1, Human CD47-his (CD47-ECD-His); test: SPR (Biacore T200), binder captured on Protein A chip, antigen in flow
T1 sequence (Q08722 19-139 limits assumed): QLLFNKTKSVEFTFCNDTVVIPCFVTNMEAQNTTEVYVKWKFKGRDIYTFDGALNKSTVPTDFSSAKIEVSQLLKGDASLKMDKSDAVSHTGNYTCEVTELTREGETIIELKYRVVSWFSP

Which Kd does the source give for B2 here?
Its Kd is 4.06 nM.

biological target: T2, Cyno CD47-his; test: as above

Which Kd does the source give for B2 here?
The Kd was 4.9 nM.

biological target: T3, hPD-L1-His; test: as above
T3 sequence (Q9NZQ7 19-239 limits assumed): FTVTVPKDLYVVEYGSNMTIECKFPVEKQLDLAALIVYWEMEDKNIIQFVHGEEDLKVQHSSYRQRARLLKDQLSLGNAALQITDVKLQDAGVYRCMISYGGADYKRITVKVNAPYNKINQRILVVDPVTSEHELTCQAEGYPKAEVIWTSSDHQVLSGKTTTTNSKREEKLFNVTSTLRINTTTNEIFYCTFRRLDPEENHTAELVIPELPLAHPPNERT

B2 was tested. Which Kd did it give?
Its Kd is 0.425 nM.

biological target: T4, Cyno PD-L1-His; test: as above
T4 sequence (G7PSE7 entry or part of it): as the sequence (Q9NZQ7 19-239 limits assumed) above, with A33T, A34S, S62N, R68Q, Q82R, F173L, T185A, T192I, H215L counted along it

With B2 as the binder, how does the Kd read?
The Kd was 0.455 nM.

biological target: T5, mPD-L1; test: as above
T5 sequence (Q9EP73 19-238 limits assumed): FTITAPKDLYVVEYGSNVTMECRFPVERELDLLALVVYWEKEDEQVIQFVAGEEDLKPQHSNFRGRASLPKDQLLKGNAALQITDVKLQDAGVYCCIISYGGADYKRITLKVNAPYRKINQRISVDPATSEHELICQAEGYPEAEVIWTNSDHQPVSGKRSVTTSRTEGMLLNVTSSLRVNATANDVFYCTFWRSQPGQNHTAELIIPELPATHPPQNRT

How did the Kd turn out when B2 was run?
Its Kd is 77.5 nM.

biological target: T1, Human CD47-his (CD47-ECD-His); test: as above; remark: another data set of the same source

B3 was tested. Which Kd did it give?
The Kd was 6.3 nM.

Which Kd does the source give for B4 here?
Its Kd is 4.59 nM.

B5 was tested. Which Kd did it give?
The Kd was 2.6 nM.
